Results from PubChem BioAssay AID651820 (National Center for Advancing Translational Sciences (NCATS), 2012).
Hit rate of the full screen: of about 340,000 compounds, about 12,000 (3.5%) were called active. The inconclusive results got no clear call from the source; some entries with a clear call stand among them for comparison. Calls come from the whole dose curve; as a rule, active = well fitted inhibition curve with a large enough effect; inconclusive = small, poorly fitted or top-dose-only effect, or another doubt; inactive = no such curve, though single readings can be large or run the other way. No potency is given beside an inconclusive call; the fits are too rough.

Experiment: qHTS Assay for Inhibitors of Hepatitis C Virus (HCV)
Settings: Huh7.5.1 HCVcc-Cre (HCVcc is cell-culture hepatitis C virus) infection, luciferase reporter, 44 h; activity change, negative = inhibition: at 41.8 µM (top of the series) unless noted
In short: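 Reporter virus HCVcc-Cre (~0.5 moi) infects cells exposed to compound; seeding density 1,000 cells/well with 4 h settling beforehand. Luminescence, 15 sec read, taken 44 h post-infection following a 15 min RT substrate incubation.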
% is set by controls: 0 for no effect and ±100 for the full control effect; potency is the fitted concentration of half-maximal effect; tags give direction and shape of the fitted curve.

SMILES	Potency	activity change, negative = inhibition
C=C1[C@@H](OC(C)=O)CC[C@]2(C)[C@@H]1C[C@@H]1C[C@H](OC(C)=O)C(C)=C([C@@H](OC(C)=O)[C@@H]2OC(C)=O)C1(C)C	inconclusive [inhibitor, single point]	
COc1cccc(-c2cc(C(=O)N3CCN(S(=O)(=O)c4ccccc4)CC3)[nH]n2)c1	inconclusive [inhibitor, single point]	
O=C(Nc1ccc(S(=O)(=O)Nc2nccs2)cc1)c1ccc(F)c(S(=O)(=O)N2CCOCC2)c1		inactive: 3.15%
CC(=O)Nc1ccc(-c2csc(NC(=O)CN3C(=O)NC4(CCCC4)C3=O)n2)cc1	inconclusive [inhibitor, full curve]	
CN(C)C(CNS(=O)(=O)c1ccc(Cl)cc1F)c1ccco1 (stereo not given)		inactive: 4.9%
Cc1ccc(S(=O)(=O)N(C)CC(=O)NCCc2c[nH]c3ccccc23)cc1	inconclusive [inhibitor, single point]	
COc1ccc(-c2csc3ncnc(NCCN4CCOCC4)c23)cc1	inconclusive [inhibitor, partial curve]	
Cc1cc(C)nc(SCC(=O)c2ccc(O)c(O)c2)n1		inactive: -24.8%
O=C(Cc1n[nH]c(=O)c2ccccc12)Nc1cccc(S(=O)(=O)N2CCCCCC2)c1	inconclusive [inhibitor, full curve]	
CCN(CC)CC(=O)Nc1c(Br)ccc2c1OCO2	inconclusive [inhibitor, partial curve]	
O=C(C[C@H]1C/C=C\C[C@H](NC(=O)OCC2c3ccccc3-c3ccccc32)C(=O)OC[C@@H]2CCCN2C1=O)NCCO		inactive: 6.75%
O=C(CCC1CCCN(C(=O)c2cccnc2)C1)NCc1ccccc1F (stereo not given)		inactive: 3.9%
COC(=O)c1ccc(Oc2nc(Nc3ccccc3)nc(N(C)C)n2)cc1	active: 11.2 µM	
COC(=O)N/N=C\c1ccc(OC/C=C/c2ccccc2)cc1		inactive: 2.61%
CC(C)CNC(=O)CCc1nc(-c2ccccc2)no1		inactive: -8.69%
CCOC(=O)C1=C(COC(=O)COc2ccccc2OCC)NC(=O)NC1C (stereo not given)	inconclusive [inhibitor, single point]	
Cc1ccc(NC2=NC(c3ccccc3)n3c(nc(C)cc3=O)N2)c(C)c1 (stereo not given)		inactive: 22.5%
O=C1c2ccccc2C(=O)N1CC1c2ccccc2CCN1S(=O)(=O)c1ccccc1 (stereo not given)	inconclusive [inhibitor, partial curve]	
CCn1nnc(NC(=O)c2cccc(-c3cc4ccccc4oc3=O)c2)n1	inconclusive [inhibitor, partial curve]	
COc1ccc(NC(=O)c2oc3ccccc3c2C)c(OC)c1	inconclusive [inhibitor, single point]	
COc1ccc(/C=C2\Sc3ccc(C(=O)N4CCN(Cc5ccccc5)CC4)cc3N(C)C2=O)cc1OC	active: 3.55 µM	
Cn1nc(C(C)(C)C)cc1C(=O)NNC(=O)c1ccccc1Cl	inconclusive [inhibitor, partial curve]	
Cc1ccc(S(=O)(=O)/N=C2\C=C(NS(=O)(=O)c3ccccc3)C(=O)c3ccccc32)cc1		inactive: -11.5%
CC(C)Nc1nc(NC(N)=S)nc(NC(C)C)n1	inconclusive [inhibitor, single point]	
C/C(=N\Nc1cc(C)nc(-c2ccccc2)n1)c1cccc([N+](=O)[O-])c1	inconclusive [inhibitor, full curve, poor fit]	

SMILES	Potency	activity change, negative = inhibition
CCCC(=O)Nc1ccc(C(=O)NCCc2ccc(F)cc2)cc1		inactive: -11.7%
Cc1noc(C)c1S(=O)(=O)Nc1ccccc1N1CCOCC1		inactive: 8.94%
O=C(c1ccco1)N1CCN(Cc2nnc(-c3cccc(Br)c3)o2)CC1		inactive: 10%
COc1ccc(CN2CCN(C)CC2)cc1OCc1ccccc1	inconclusive [inhibitor, single point]	
c1ccc(-c2cc(N3CCCCC3)ncn2)cc1		inactive: -12.1%
Cc1cc(C)nc(N/N=C/c2ccccc2OCc2ccccc2)n1	inconclusive [inhibitor, single point]	
O=C(NCCCN1CCOCC1)c1ccc(/C=C2\Oc3ccccc3N(Cc3ccccc3F)C2=O)cc1	inconclusive [inhibitor, partial curve]	
Cc1nc2c([N+](=O)[O-])c(C)c(C)cc2[nH]1		inactive: 0.425%
COc1cccc(C(=O)Nc2ccc3nc(N4CCOCC4)cc(C)c3c2)c1	inconclusive [inhibitor, full curve]	
CCN(CC)/C(=N/O)NC(=O)NS(=O)(=O)c1ccc(C)cc1		inactive: 7.59%
CNC(=O)c1cc2ccc(OC)cc2oc1=O		inactive: 20.5%
O=C(c1cccc(-c2nnc(-c3ccccc3)o2)c1)N1CCCCCC1	inconclusive [inhibitor, single point]	
O=C(COc1ccc2c3c(c(=O)oc2c1)CCCC3)N1CCN(c2ccc(F)cc2)CC1	active: 10 µM	
CN(CC(=O)Nc1ccc(Cl)cc1)C(=O)c1ccc(COc2ccccc2)cc1	inconclusive [inhibitor, single point]	
Cc1cc(Oc2ccc(N)cn2)ccc1Cl	inconclusive [inhibitor, partial curve]	
COc1ccccc1C(CNC(=O)C1CCN(C(=O)Nc2ccccc2)CC1)N1CCCC1 (stereo not given)		inactive: -6.45%
COc1cc(C2c3c([nH]c(=O)[nH]c3=O)Nc3ccc4ccccc4c32)cc(OC)c1OC (stereo not given)		inactive: 17%
CC(=O)Nc1ccc(Nc2nc(-c3c(C)nc4ccccn34)cs2)cc1	inconclusive [inhibitor, full curve]	
CC(C)n1cnc2c(N(C)c3cccc(Cl)c3)nc(N(CCO)CCO)nc21	inconclusive [inhibitor, partial curve]	
CC(C)CCn1c(=O)c2ccccc2n2c(CCl)nnc12	inconclusive [inhibitor, single point]	
Brc1ccsc1/C=N/Nc1ccccc1		inactive: -8.41%
CCOc1cccc2cc(-c3csc(NC(=O)CCC(=O)N4CCC(C)CC4)n3)c(=O)oc12		inactive: 8.62%
NC(=O)Cc1cn(-c2ncc(C(F)(F)F)cc2Cl)c2ccccc12	inconclusive [inhibitor, partial curve]	
CCOc1ccc(CN2CCNC(=O)C2CC(=O)NCCc2cnccn2)cc1 (stereo not given)		inactive: 7.56%
Cc1cccc(OCCn2c(=S)[nH]c3ccccc32)c1		inactive: -17.3%

SMILES	Potency	activity change, negative = inhibition
COc1ccccc1C(=O)O/N=C(\N)c1ccc(Cl)cc1		inactive: 0.289%
COc1ccc(/C(N)=N/OC(=O)Oc2ccccc2)cc1OC		inactive: 32%
COc1ccc(S(=O)(=O)N(CC(=O)Nc2ccc(S(=O)(=O)N3CCOCC3)cc2)c2ccccc2)cc1	active: 5.62 µM	
Cn1nc(C(C)(C)C)cc1NC(=O)Nc1cc(Cl)cc(Cl)c1	inconclusive [inhibitor, single point]	
Cc1ccc(-c2nnc(CCC(=O)N(C)Cc3nccs3)o2)s1	inconclusive [inhibitor, single point]	
O=C(NCC(c1ccco1)N1CCc2ccccc21)c1ccc([N+](=O)[O-])cc1 (stereo not given)	inconclusive [inhibitor, partial curve, poor fit]	
CCN(CC)CCCNC(=O)c1sc2nc(-c3ccc(F)cc3)cn2c1C	inconclusive [inhibitor, partial curve]	
O=C(NCc1ccco1)c1nc(-c2ccccc2)n(-c2ccccc2)n1	inconclusive [inhibitor, single point]	
O=C(NCC1OCCc2ccccc21)c1ccc(NC(=O)c2ccccc2Cl)cc1 (stereo not given)	inconclusive [inhibitor, full curve]	
CCOc1ccccc1NC(=O)CSc1nnc(Cc2ccc(OC)cc2)c(=O)n1N	inconclusive [inhibitor, full curve]	
CC(C)(C)C(=O)NC1(C(F)(F)F)NC(=O)N(c2ccccc2F)C1=O (stereo not given)		inactive: 0.285%
COc1ccc(CNC(=O)CCN2C(=O)[C@@H]3Cc4ccccc4CN3C2=O)cc1	inconclusive [inhibitor, single point]	
O=C(CCN1C(=O)C2C3CCC(C3)C2C1=O)Nc1ccc(F)cc1 (stereo not given)		inactive: -5.51%
O=C(N1CCCCC1)C1(S(=O)(=O)c2ccccc2)CC=CC1		inactive: 22.4%
CC(C)NCC(O)COCCOc1ccc(C(C)(C)C)cc1 (stereo not given)	inconclusive [inhibitor, single point]	
CC(C)(C)c1ccc(-c2nc3c(C#N)c(-c4ccc5c(c4)OCO5)ccn3n2)cc1	inconclusive [inhibitor, partial curve]	
COc1ccc(NC(C)=[N+](C)CCNS(=O)(=O)c2ccc(Cl)cc2)cc1Cl		inactive: -15.6%
OC(COc1ccc(OCC(O)CN2CCN(Cc3ccccc3)CC2)cc1)CN1CCN(Cc2ccccc2)CC1 (stereo not given)	inconclusive [inhibitor, single point]	
OC1(c2ccccc2)CNCCc2ccccc21 (stereo not given)		inactive: 5.67%
COC(=O)Cc1cc(=O)[nH]c(/N=C(\N)Nc2cccc(C)c2)n1		inactive: 10.5%
CC(=O)Nc1cc2c(cc1NC(=O)Cn1nc(-c3ccccc3)ccc1=O)OCCO2		inactive: -11.9%
Cc1ccc(C(=O)N/N=C\c2ccc[nH]2)cn1	active: 8.91 µM	
O=C(Nc1ccc(Cl)c(Cl)c1)Nc1nnc(CC2=CCCCC2)s1	active: 2.82 µM	
Cc1ccc(O)c(NC(=O)c2cc(-c3ccco3)on2)c1	inconclusive [inhibitor, partial curve]	
CC1CC(C)CN(CCCNS(=O)(=O)c2cc(Br)cc3c2N(C(=O)C2CC2)CC3)C1 (stereo not given)	inconclusive [inhibitor, partial curve]	
